From the supplement of paper PMC3334620
Over roughly 33,000 sequences, “E-score (-0.5 to 0.5)” has its median near -0.035; the highest 2% begin near 0.35. Some of the results follow.

Target: T1, Pdr3 (UniProt P33200)
T1 sequence: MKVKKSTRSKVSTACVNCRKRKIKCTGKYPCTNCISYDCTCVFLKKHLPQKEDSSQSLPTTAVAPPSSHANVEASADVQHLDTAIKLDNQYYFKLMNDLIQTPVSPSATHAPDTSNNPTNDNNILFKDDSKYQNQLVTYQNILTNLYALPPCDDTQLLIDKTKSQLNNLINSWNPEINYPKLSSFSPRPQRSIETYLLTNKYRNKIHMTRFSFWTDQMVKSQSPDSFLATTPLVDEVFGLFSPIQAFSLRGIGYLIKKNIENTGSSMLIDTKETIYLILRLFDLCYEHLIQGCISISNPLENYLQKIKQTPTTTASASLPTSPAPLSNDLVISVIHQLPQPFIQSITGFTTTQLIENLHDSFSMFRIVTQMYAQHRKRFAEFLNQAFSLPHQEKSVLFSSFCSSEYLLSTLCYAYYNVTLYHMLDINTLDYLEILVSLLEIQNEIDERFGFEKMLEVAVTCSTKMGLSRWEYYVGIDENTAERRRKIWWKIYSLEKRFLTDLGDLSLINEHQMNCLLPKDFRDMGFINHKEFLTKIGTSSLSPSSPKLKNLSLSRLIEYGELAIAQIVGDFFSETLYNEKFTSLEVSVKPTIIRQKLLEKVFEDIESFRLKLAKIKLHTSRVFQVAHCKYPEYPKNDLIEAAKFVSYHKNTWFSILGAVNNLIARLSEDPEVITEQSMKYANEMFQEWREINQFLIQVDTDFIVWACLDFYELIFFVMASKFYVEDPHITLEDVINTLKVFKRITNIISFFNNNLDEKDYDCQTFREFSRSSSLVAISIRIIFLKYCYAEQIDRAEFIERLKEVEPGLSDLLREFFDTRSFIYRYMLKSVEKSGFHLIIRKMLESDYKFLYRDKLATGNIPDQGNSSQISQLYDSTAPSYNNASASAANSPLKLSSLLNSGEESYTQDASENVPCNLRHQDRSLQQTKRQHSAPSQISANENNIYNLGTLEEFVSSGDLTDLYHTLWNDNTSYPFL
Experiment: PBM E-score (8-mer binding enrichment) (E-score (-0.5 to 0.5)); higher = stronger / more preferred TF binding; most listed sequences are background and not binding sites
Conditions: protein concentration: 200 nM; construct: GST-full length
Method in brief: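 GST-tagged yeast TFs (full-length or DNA-binding domain) were made by PURExpress in vitro transcription/translation and applied at about 100-200 nM to universal all-10-mer Agilent arrays. The arrays were made double-stranded by primer extension, on fresh or once-stripped slides. Bound protein was detected with fluorescent anti-GST, and scans were normalised with masliner. Each ungapped eight-base word, pooled with its reverse complement, received an E-score (modified Wilcoxon-Mann-Whitney statistic) from the Universal PBM Analysis Suite.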

Sequence	PBM E-score
CATAGTAA	-0.0298
CCTTTGAA	-0.157
GGGGCCGA	-0.154
CTGTGGCA	-0.103
TAGATCCA	-0.0974
AAGGTACT	-0.0597
ACTATCAC	-0.18
CAAAGTGC	-0.129
GATCCTAC	0.0778
ACTCCCCT	0.0508
CGCCACAA	-0.0528
GAGCGCCC	0.041
CACAATTC	0.0723
TACATAAA	-0.186
GAGAATGC	-0.0223
CCCCAAGC	0.102
CGGCCGAG	0.322
ACAACGCC	0.0246
TCAATAGA	-0.262
CCTAGGGA	-0.108
ATGGCCTC	0.0436
AACCGAGC	0.111
AGCGAGTC	-0.102
AGTGCAAG	-0.0678
GCCCACGA	-0.188

Sequence	PBM E-score
GTGCGATA	-0.0185
ACTATGTA	-0.181
ATGACTTG	0.00252
ACTCCAAT	-0.00392
GCGTGAAA	-0.0621
TCCTCCAA	-0.102
CTGAACTC	-0.215
GAGTGTGC	-0.038
ATGACTGC	-0.00882
AATACCCG	0.261
CTGGCAAA	-0.0742
ATCTTCGA	-0.115
CTAAGACC	0.00783
CTCCATAA	-0.273
AAGTGCCG	0.0826
GCTGGACA	-0.068
AAAAAACC	-0.0481
TGGGACCA	-0.106
AGAGCCAA	-0.163
GAGTAAAA	-0.107
ACTAAATG	-0.0461
CAGGAAGC	0.0744
GCGTGCAA	-0.172
AGTGCCAC	-0.112
AAAACCGG	0.253

Sequence	PBM E-score
AAGCTGGG	-0.102
AGATGTCC	0.0949
TAGCCTAA	-0.291
GTAGGGAC	-0.106
ACTGGTGC	-0.0467
GAGGCGGC	0.126
CATATGAG	-0.0186
GGCAGGAA	0.0303
GTACGGTA	0.0177
ACCAAGAC	0.0001
ATCCGAAA	0.248
CTCTTCGA	-0.061
CCGCGAGG	0.292
AGTCTCCC	-0.0822
AGCGGACG	0.234
CGCTGAAA	0.0326
AGCTATAT	0.0497
TCAATTCA	-0.024
GCCTCCTA	-0.268
GGGCGAGA	0.0226
CCCTTCCC	0.0658
ACTAGAAC	-0.00871
ACTTGCCA	-0.00274
CTCATAGC	-0.307
AGGGGGAT	-0.104

Sequence	PBM E-score
GAATTTTA	-0.0134
ATGTGAGG	-0.114
CCACAGAA	-0.159
GAAAACGC	-0.178
ATTGGGTA	-0.256
AATCGCAC	-0.206
AACACGAT	0.0715
ATTTATTC	0.113
GGTACATA	0.121
GATCGATA	-0.0722
ACGTAATA	-0.118
GGCCCTTA	-0.0861
ATTATAGA	-0.161
CACTTAGG	-0.123
CGGTTACG	0.00035
CTCTTCGC	0.0423
CAGGGGAG	-0.071
AGGGTTCC	0.249
ACAATAAC	0.116
CCGGCGAC	0.267
GCAACTCA	0.00983
CTACCCAG	-0.231
CCGCATCC	0.128
TAGCCTGA	-0.28
CTGAAGCA	-0.199

Sequence	PBM E-score
ACAAAAGG	-0.0346
CTTAGAAA	-0.17
CTGGATAC	-0.0239
CTGCTCGC	-0.0332
CGCGCGGA	0.383
CTCGCCTC	-0.0716
AACCTCGG	0.18
GGTTAGAC	0.0804
GGGCGAAA	0.132
ATTCTGCC	0.209
CAGAGACC	-0.09
AATAGAAG	-0.0729
TAGCAGGA	-0.0867
AAGTTCTG	-0.0867
ACGAGTTG	-0.0912
ACGCGTTA	-0.0884
GTTTATCA	0.231
AGAGACTG	-0.161
AGTTAGAT	-0.212
ATCACCGC	-0.0267
ACCGAGCA	0.154
ACTCGCCA	-0.14
GGAATGCA	0.259
GCTGGGGA	-0.226
CTCGCACA	0.0857

Sequence	PBM E-score
CTGACAGC	-0.0252
GCATTACA	0.0468
CAAAAACC	0.0333
AACTAAGT	-0.0156
CCCTGCAG	0.129
CCTTCACG	-0.0977
GGCCAAGA	-0.176
CGTGAGAG	-0.186
CCAAAGTC	-0.201
ATGTGTCC	0.175
GGCTGGAA	-0.0461
CGTTTTGC	-0.154
ACCTACAT	-0.0815
CGCAAGAG	0.0334
GGGGCTAC	-0.0937
ACGGTACT	0.166
GGATAGAC	-0.0752
AACATGAT	-0.0409
CACGAACC	-0.0685
AAGCGATC	0.0113
TAATCCTA	-0.166
AAACACAC	-0.00581
AAAACCCG	0.319
CTATTCAC	0.0948
AAGAGTGT	-0.108

Sequence	PBM E-score
CAAGAAGA	-0.0691
GGGTTAGA	-0.044
CATCAACG	0.174
ACATCACT	-0.0719
GATAGGAC	-0.246
ACGACATG	-0.0929
TGGTACCA	0.174
CAGCAATC	-0.145
AGCCCAAT	-0.194
CCACTGGG	-0.104
CCTTTGTA	-0.22
AGGCAATC	-0.157
ACTTTTCA	-0.209
GTCGGCAC	0.0801
ACGAATGC	-0.158
AAGTACGT	0.0103
CGGGATCA	0.344
ATCGCTTG	-0.221
TATGGAAA	0.127
CGGACATC	0.319
CGCCGAAA	0.188
CGCGGACC	0.437
